Assay results as given in the supplement of paper PMC10322689.
Counter-ions that a name gives are not always drawn. ± gives the standard deviation of the averaged measurements. The list shows a part of the results. Repeats are few or missing, and single values can be far off.

Tested on: mouse mesenchymal chondrosarcoma cells (HEY1-NCOA2)
Test: XTT absorbance relative to DMSO control (cell viability) (fraction of DMSO control); higher = more viable cells / less growth inhibition

Row | Compound | XTT absorbance
1 | C[n+]1ccc(-c2c3nc(c(-c4cc[n+](C)cc4)c4ccc([nH]4)c(-c4cc[n+](C)cc4)c4ccc([nH]4)c(-c4cc[n+](C)cc4)c4nc2C=C4)C=C3)cc1 | 1.15
2 | COc1ccc(OC)c2c(=S)c3ccccc3[nH]c12 | 0.958
3 | NC(=O)NO [Hydroxyurea] | 0.997
4 | CCCOc1ccccc1-c1nc2[nH]nnc2c(=O)[nH]1 [Zaprinast] | 0.882
5 | CC(=O)N[C@@H](CSC(=O)[C@]1([C@@H](O)C(C)C)NC(=O)[C@H](C)[C@@H]1O)C(=O)O [Lactacystin] | 0.923
6 | Clc1ccccc1CNCC1CCC(CNCc2ccccc2Cl)CC1 (stereo not given) | 1.05
7 | NC1=N/C(=C2/CCNC(=O)c3[nH]ccc32)C(=O)N1 [Debromohymenialdisine (DBH)] | 0.884
8 | O=C(O)c1ccccc1Nc1ccccc1 [N-phenylanthranilic acid] | 0.92
9 | O=C1CCC(N2C(=O)c3ccccc3C2=O)C(=O)N1 (stereo not given) [thalidomide] | 0.976
10 | CC(C)C[C@@H](N)[C@H](O)C(=O)N[C@H](C(=O)N[C@H](C(=O)N[C@@H](CC(=O)O)C(=O)O)C(C)C)C(C)C [Amastatin] | 0.995
11 | CS(=O)(=O)Nc1ccc([N+](=O)[O-])cc1OC1CCCCC1 | 0.946
12 | CC(C)c1ccc2c(c1)c(SC(C)(C)C)c(CC(C)(C)C(=O)O)n2Cc1ccc(Cl)cc1 | 0.933
13 | CCN(CC)CCNC(=O)c1c(C)[nH]c(/C=C2\C(=O)Nc3ccc(F)cc32)c1C [sunitinib malate] | 0.76
14 | O=C1Nc2ccc(I)cc2/C1=C\c1cc(Br)c(O)c(Br)c1 [RAF1 kinase inhibitor I] | 0.913
15 | Oc1c2ccccc2c2c3c(cccc13)N=N2 | 0.9264 ± 0.004
16 | CNC(=O)c1cc(Oc2ccc(NC(=O)Nc3ccc(Cl)c(C(F)(F)F)c3)cc2)ccn1 [sorafenib] | 1.01
17 | COc1cc2nc(N3CCCN(C)CC3)nc(NC3CCN(Cc4ccccc4)CC3)c2cc1OC | 1.01
18 | COc1ccc(Cn2ccc3ccc(C(=O)NO)cc32)cc1 | 1.09
19 | COc1cccc2c1C(=O)c1c(O)c3c(c(O)c1C2=O)C[C@@](O)(C(=O)CO)C[C@@H]3O[C@H]1C[C@H](N)[C@H](O)[C@H](C)O1 [Doxorubicin, HCl] | 0.248
20 | CC(C)C[C@H](NC(=O)[C@H](Cc1ccccc1)NC(=O)c1cnccn1)B(O)O [bortezomib] | 0.195
21 | C[C@@H]1C[C@H]2[C@@H]3CCC4=CC(=O)C=C[C@]4(C)[C@@]3(F)[C@@H](O)C[C@]2(C)[C@@]1(O)C(=O)CO [Dexamethasone] | 0.84
22 | CC(C)(C)c1cc(O)ccc1O [t-Butylhydroquinone (BHQ)] | 0.933
23 | COC(=O)C[C@H](NC(=O)[C@H](C)NC(=O)[C@@H](NC(=O)OCc1ccccc1)C(C)C)C(=O)CF | 0.892
24 | NS(=O)(=O)c1ccc(Nc2nc(OCC3CCCCC3)c3[nH]cnc3n2)cc1 | 0.915
25 | C=CCNC1=C2C[C@@H](C)C[C@H](OC)[C@H](O)[C@@H](C)/C=C(\C)[C@H](OC(N)=O)[C@@H](OC)/C=C\C=C(/C)C(=O)NC(=CC1=O)C2=O | 0.273
